Measured values as given in the supplement of paper PMC3334620.
Over roughly 33,000 sequences, “E-score (-0.5 to 0.5)” has its median near -0.053; the highest 2% begin near 0.37. Some of the results follow.

target: Hap1 (UniProt P0CE41); assay: PBM E-score (8-mer binding enrichment) (E-score (-0.5 to 0.5)); higher = stronger / more preferred TF binding; most listed sequences are background and not binding sites; settings: protein concentration: 200 nM; construct: GST-DNA-binding domain
In short: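 Bound GST-tagged yeast transcription factors, applied at about 100-200 nM to double-stranded universal all-10-mer Agilent arrays, were detected with fluorescent anti-GST. Scans were normalised with masliner. A modified Wilcoxon-Mann-Whitney statistic, the E-score, was assigned to each ungapped eight-base word pooled with its reverse complement by the Universal PBM Analysis Suite.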

Sequence of UniProt P0CE41 (P0CE41 whole entry, the tested form may be a part): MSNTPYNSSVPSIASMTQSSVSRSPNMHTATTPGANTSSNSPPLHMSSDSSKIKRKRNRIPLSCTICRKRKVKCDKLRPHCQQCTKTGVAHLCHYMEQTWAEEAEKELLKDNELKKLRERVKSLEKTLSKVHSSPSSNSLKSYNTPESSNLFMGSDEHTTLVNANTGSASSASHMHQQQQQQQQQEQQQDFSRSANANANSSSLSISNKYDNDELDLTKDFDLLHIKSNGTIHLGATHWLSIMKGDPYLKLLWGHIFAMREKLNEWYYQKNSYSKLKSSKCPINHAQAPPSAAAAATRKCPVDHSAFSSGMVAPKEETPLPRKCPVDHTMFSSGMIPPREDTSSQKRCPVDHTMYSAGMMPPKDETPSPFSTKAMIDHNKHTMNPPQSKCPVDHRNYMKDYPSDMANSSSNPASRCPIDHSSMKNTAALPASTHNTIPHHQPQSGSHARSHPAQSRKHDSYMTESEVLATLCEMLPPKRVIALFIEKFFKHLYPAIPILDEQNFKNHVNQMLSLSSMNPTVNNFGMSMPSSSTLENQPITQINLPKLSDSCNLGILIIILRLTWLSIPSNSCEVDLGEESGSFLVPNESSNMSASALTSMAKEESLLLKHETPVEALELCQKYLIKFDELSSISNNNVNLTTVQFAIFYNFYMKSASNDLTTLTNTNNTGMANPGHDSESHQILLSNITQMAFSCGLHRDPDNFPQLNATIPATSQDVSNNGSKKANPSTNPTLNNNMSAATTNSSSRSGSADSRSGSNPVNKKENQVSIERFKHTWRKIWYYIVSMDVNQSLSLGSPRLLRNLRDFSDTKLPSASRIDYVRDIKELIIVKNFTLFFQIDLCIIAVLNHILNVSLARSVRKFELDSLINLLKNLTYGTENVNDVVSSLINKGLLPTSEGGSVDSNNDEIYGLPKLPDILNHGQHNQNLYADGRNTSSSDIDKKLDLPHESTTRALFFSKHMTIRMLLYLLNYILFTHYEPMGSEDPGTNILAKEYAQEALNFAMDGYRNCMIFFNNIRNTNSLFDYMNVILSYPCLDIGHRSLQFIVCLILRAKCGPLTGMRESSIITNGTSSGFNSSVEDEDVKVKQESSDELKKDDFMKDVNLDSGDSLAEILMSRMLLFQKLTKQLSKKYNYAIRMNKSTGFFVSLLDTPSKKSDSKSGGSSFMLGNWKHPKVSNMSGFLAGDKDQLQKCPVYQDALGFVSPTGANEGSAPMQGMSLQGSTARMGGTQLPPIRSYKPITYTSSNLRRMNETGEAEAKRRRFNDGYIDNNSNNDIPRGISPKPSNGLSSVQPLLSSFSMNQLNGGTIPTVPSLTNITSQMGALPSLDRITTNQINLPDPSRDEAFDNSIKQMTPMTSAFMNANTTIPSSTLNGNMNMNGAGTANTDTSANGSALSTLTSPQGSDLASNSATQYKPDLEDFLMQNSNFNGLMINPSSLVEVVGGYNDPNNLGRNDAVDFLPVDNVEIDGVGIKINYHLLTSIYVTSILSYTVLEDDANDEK

Sequence | PBM E-score
ATTACTCA | -0.105
ACTATGCC | -0.0432
GACCGATC | 0.341
ATTGAATG | -0.104
AAGGTCCA | 0.00642
GTGTTGAA | -0.109
AGAAGCCC | 0.224
CATAGGTC | -0.118
GGGCCCCA | 0.00501
CAAGTACG | -0.309
AGTCCTCA | 0.0165
ATCCTGCA | -0.24
CGCAGACG | -0.0806
CAGACGAG | -0.149
CGCTTAAC | 0.0905
CCGTATCG | 0.225
CCGCGCAG | 0.183
ATTCGCGC | 0.116
CCGTCGTC | 0.151
GGGCCACA | 0.0584
CCCCCTTA | -0.257
AGCTTGAC | -0.138
GAATCACA | 0.13
CCCTACTC | -0.0316
AATCTACA | -0.125

Sequence | PBM E-score
AGTGACAC | -0.105
ACCTTAGG | -0.0886
GGCGTTAC | 0.185
ACGTAGGC | -0.231
AGATACCG | 0.319
CAATCGTC | -0.167
CTTACATA | -0.153
ACGAAGGG | -0.224
TACTTTCA | -0.0123
CCGTCACA | 0.152
AACCTATC | -0.00501
AAAGCTCT | 0.0172
CTTGGCTC | -0.069
AGCGGAGG | 0.158
AACATCAC | -0.179
GGAATCGA | 0.0799
GTATCACA | -0.111
TTACAGAA | -0.277
ATACACAC | -0.235
AGTCGTGG | -0.137
GAACAAAC | 0.114
CAAAGGGA | -0.382
TGCGTTAA | -0.0556
ACGGCGGA | 0.273
CCGGGCCC | 0.369

Sequence | PBM E-score
AGTACCAA | 0.0324
AGCACGTC | -0.0296
CACGGTTA | 0.145
CCATAGAA | -0.186
CAAATTCC | 0.199
AGCCGATA | 0.427
GGTCTGAA | -0.0614
CTTGACTC | -0.17
GCTGTGGA | 0.0167
ACAGACGG | -0.117
AAATGGCC | 0.135
ACTTACGG | 0.293
ATGAGGCC | -0.0558
AGGCTTCC | -0.101
CCCGTGAA | 0.135
TTGGTAAA | -0.105
GAATCGCC | 0.0852
CGGATGTA | 0.427
AGGAGGCA | -0.0609
GTAGAAAA | -0.0902
TGATCTAA | -0.172
ATCAACGA | 0.0514
CAGGACAC | -0.117
TATAATCA | 0.0723
AACAACCG | 0.21

Sequence | PBM E-score
AAATATAT | 0.0607
TGCTGACA | -0.258
CAAGAATC | 0.15
CGCAAAAA | 0.0563
GCCAAGTA | -0.218
CGCTACTA | 0.163
ACATTGCG | -0.0133
AACACCCA | -0.186
GCGCTGTA | -0.0992
GCACGAAA | -0.0143
ATTCGTGA | -0.232
ATAGAGAT | -0.194
GAGTGCCA | -0.165
GCAGCCGA | 0.2
GACAATGA | -0.102
ATCATATC | 0.0983
AAATGTAT | 0.105
CAAGCCGA | 0.24
GGTCTTCA | -0.16
AACATTAT | -0.0948
CAGATGTA | -0.198
AAGCACAG | -0.0954
AAAGCAAC | -0.00246
AACAGTCG | -0.043
GGGGATAA | 0.343

Sequence | PBM E-score
CCCTTCGC | -0.074
ACTCCGGG | 0.39
TCTAGCCA | -0.0919
ACAGTATG | -0.135
AGTCCACA | -0.0896
AGCGCCTC | -0.0565
CACTTCCA | -0.0539
CGGGTTCA | 0.246
CATATAAC | 0.00972
ACCCCACT | -0.103
AATTACGC | -0.159
CTGACGGC | 0.0958
AGGCAAAA | -0.0573
ATCACAGA | -0.154
AGCCAGAT | 0.00391
GGAACTAA | 0.337
ACCGAGAG | 0.299
AACGGACC | 0.327
CCGAAGAG | 0.308
GGGCGTGA | 0.0442
GCCGCTTA | 0.073
TATACAAA | -0.0771
GTCGACAA | -0.0854
AGCTGTCG | -0.0205
CCAATGAG | -0.0685

Sequence | PBM E-score
ACAAGTTC | -0.079
ACCCCCAT | -0.213
ATATGTCC | 0.344
CTTCCTAA | -0.117
CCGCACTA | 0.154
CGTGGGAG | -0.114
CCGAACCC | 0.252
TAATCCAA | -0.151
CCCCAAAC | -0.165
ACTCGAAG | -0.0473
CCCTCTCA | -0.259
CCCGAGTA | 0.31
ACTCTGTC | -0.124
GCCACGAA | -0.00673
ATACTTTC | 0.101
GTCAGCAC | -0.0194
CTTGATAA | -0.119
CGCTCGCA | 0.12
AAAACAGA | -0.119
ATCAGAGA | -0.255
CATTCTAA | -0.102
AATCACTC | -0.186
ACGCACCA | -0.161
TACTATCA | 0.0619
ACCCGCGT | -0.0512

Sequence | PBM E-score
GTTTCGCA | -0.0942
CATATACC | -0.0427
GGGGCAGA | -0.0029
GAAGTGTC | 0.0473
ACTGAGTG | -0.128
AGGTTTCA | 0.0481
ACTAAGCA | -0.283
CCTGCTGC | -0.0734
AGAAGGAA | -0.103
ACGTGTTA | -0.175
AGCGTTAA | 0.00624
AGATAGCA | -0.0252
CTAGGCGA | 0.0215
GACTTTAC | 0.032
ATTGTTCA | -0.228
ACGGGAAC | 0.101
CGATAGTA | 0.189
CTGTTTGC | -0.231
CTACATGA | -0.187
CGATTGAA | 0.0963
AGGCCACG | -0.0133
TAGCGCGA | 0.0659
AGCCGACT | 0.205
TCTGGGCA | 0.204
ACAAACAG | -0.0612

Sequence | PBM E-score
GATAAGAA | 0.0637
TGAAGACA | -0.0595
CGCGCCGA | 0.317
CCCGGCCA | 0.291
CGAGCATC | 0.0291
AGCCGTAC | -0.0618
AGAACGAA | -0.0956
ACGTCCAC | -0.149
GAACCAAA | -0.202
AGCATAAA | -0.0693
AGCAGTCG | 0.0529
AAAGGTAT | 0.09
AGCCACCC | -0.0366
ACCGAAAT | 0.301
CAACTAAG | -0.0658
GCTGCGCC | -0.0725
TTACGTAA | -0.348
AGCCCTTC | -0.241
CAGCTGCA | -0.16
CAAGTCTC | -0.249
AGTAGGAC | -0.181
TGCCACCA | -0.269
ACGTTAAG | -0.0924
ACTGATAG | -0.267
ACCTAAGC | 0.027

Sequence | PBM E-score
CGGATACC | 0.218
AGATCAGA | -0.336
CGTTCTCC | 0.14
GGTGCTCA | -0.0958
CGGACCGC | 0.367
AATCTAGA | -0.214
AGAAGCAC | -0.174
ATCTAACG | 0.153
AGTTGCGA | -0.192
ACCTGCAG | -0.294
AACTGTCA | -0.212
CATCTCGC | -0.0113
AGCTAGTC | -0.0872
CCCTCGAG | -0.215
CCTATGAG | -0.308
AAGACGTC | -0.2
AGATGACG | -0.244
AGAGCGAC | -0.11
AAAAACGC | 0.0756
